The list shows a part of the results. Repeats are few or missing, and single values can be far off.
tested on: G361; assay: cell count relative to DMSO control; melanoma cells; higher = more viable cells; details: library dose: standard library concentration; 72 h
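Further: cells treated in 1,536-well plates, then fixed and DAPI-stained, with nuclei counted from automated high-throughput microscope images.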

| SMILES | cell count [%] |
| --- | --- |
| CN(c1ncccc1CNc1nc(Nc2ccc3c(c2)CC(=O)N3)ncc1C(F)(F)F)S(C)(=O)=O + C[C@@H]1CCN(C(=O)CC#N)C[C@@H]1N(C)c1ncnc2[nH]ccc12 [CP690550] (first compound 0.4 µM, partner dose 5 µM) | 107 |
| CCCS(=O)(=O)Nc1ccc(F)c(C(=O)c2c[nH]c3ncc(Cl)cc23)c1F + Oc1cc(-c2nc(-c3ccccc3)[nH]c2-c2ccncc2)ccc1Cl [L779450] (first compound 0.4 µM, partner dose 1 µM) | 59.4 |
| C=C(c1ccc(C(=O)O)cc1)c1cc2c(cc1C)C(C)(C)CCC2(C)C [Bexarotene] + Oc1nc(-c2ccc(C(F)(F)F)cc2)nc2c1CSCC2 [XAV939] (first compound 10 µM, partner dose 10 µM) | 77.8 |
| C=C(c1ccc(C(=O)O)cc1)c1cc2c(cc1C)C(C)(C)CCC2(C)C [Bexarotene] + CCCS(=O)(=O)Nc1ccc(F)c(C(=O)c2c[nH]c3ncc(Cl)cc23)c1F [PLX4720] (first compound 10 µM, partner dose 0.4 µM) | 70.7 |
| CN(c1ncccc1CNc1nc(Nc2ccc3c(c2)CC(=O)N3)ncc1C(F)(F)F)S(C)(=O)=O + Cc1cc(N2CCOCC2)cc2[nH]c(-c3c(NC[C@@H](O)c4cccc(Cl)c4)cc[nH]c3=O)nc12 [BMS536924] (first compound 0.4 µM, partner dose 1 µM) | 76.6 |
| CS(=O)(=O)c1ccc(C(=O)Nc2ccc(Cl)c(-c3ccccn3)c2)c(Cl)c1 [vismodegib] + O=C(CCCCCCC(=O)Nc1ccccc1)NO [vorinostat] (first compound 5 µM, partner dose 0.4 µM) | 60 |
| NC1(c2ccc(-c3nc4ccn5c(=O)[nH]nc5c4cc3-c3ccccc3)cc2)CCC1 + Nc1cccc2c1CN(C1CCC(=O)NC1=O)C2=O [lenalidomide] (first compound 2 µM, partner dose 5 µM) | 88 |
| CS(=O)(=O)c1ccc(C(=O)Nc2ccc(Cl)c(-c3ccccn3)c2)c(Cl)c1 [vismodegib] + COc1ccc(-c2ccc3c(N4CCOCC4)nc(N4C[C@@H](C)O[C@@H](C)C4)nc3n2)cc1CO [KU0063794] (first compound 5 µM, partner dose 0.1 µM) | 93.1 |
| CS(=O)(=O)c1ccc(C(=O)Nc2ccc(Cl)c(-c3ccccn3)c2)c(Cl)c1 [vismodegib] + C=CCn1c(=O)c2cnc(Nc3ccc(N4CCN(C)CC4)cc3)nc2n1-c1cccc(C(C)(C)O)n1 [MK1775] (first compound 5 µM, partner dose 0.1 µM) | 64.8 |
| NC1(c2ccc(-c3nc4ccn5c(=O)[nH]nc5c4cc3-c3ccccc3)cc2)CCC1 + Cn1cc(/C=C2\C(=O)Nc3cccnc32)c2ccccc21 [GW441756] (first compound 2 µM, partner dose 2 µM) | 83.1 |
| C=C(c1ccc(C(=O)O)cc1)c1cc2c(cc1C)C(C)(C)CCC2(C)C [Bexarotene] + O=C1NC(=O)/C(=C/c2ccc(-c3ccc(F)cc3O)o2)S1 [AS252424] (first compound 10 µM, partner dose 5 µM) | 78.6 |
| CN(c1ncccc1CNc1nc(Nc2ccc3c(c2)CC(=O)N3)ncc1C(F)(F)F)S(C)(=O)=O + Cn1c(Nc2ccc(C(F)(F)F)cc2)nc2cc(Oc3ccnc(-c4ncc(C(F)(F)F)[nH]4)c3)ccc21 [CHIR265] (first compound 0.4 µM, partner dose 0.4 µM) | 22.2 |
| CS(=O)(=O)c1ccc(C(=O)Nc2ccc(Cl)c(-c3ccccn3)c2)c(Cl)c1 [vismodegib] + Cn1nnc2c(C(N)=O)ncn2c1=O [temozolomide] (first compound 5 µM, partner dose 10 µM) | 81.7 |
| CCCS(=O)(=O)Nc1ccc(F)c(C(=O)c2c[nH]c3ncc(Cl)cc23)c1F + Cn1nnc2c(C(N)=O)ncn2c1=O [temozolomide] (first compound 0.4 µM, partner dose 10 µM) | 65.7 |
| C=C(c1ccc(C(=O)O)cc1)c1cc2c(cc1C)C(C)(C)CCC2(C)C [Bexarotene] + C#Cc1cccc(Nc2ncnc3cc(OCCOC)c(OCCOC)cc23)c1 [erlotinib] (first compound 10 µM, partner dose 4 µM) | 77.7 |

Source: the supplement of paper PMC4604168 (melanoma cell lines)
